Test results as given in PubChem BioAssay AID485281 (National Center for Advancing Translational Sciences (NCATS), 2010).
Where “and” joins values, the source holds several entries; their conditions need not be identical. Equal entries are not always repeated. Among all 350,000 compounds or so, about 260 (0.074%) were called active. Inconclusive means that the source gave no clear call. Such entries were picked first, then a sample of the others. The call rests on the fitted dose curve; in most records, active means well fitted inhibition curve with a large enough effect; inconclusive means small, poorly fitted or top-dose-only effect; inactive means no such curve, though single readings can be large or run the other way. Potencies of inconclusive entries are doubtful fits and often do not repeat.

molecular target: Ferritin light chain (Equus caballus) (UniProt P02791); assay: qHTS Assay for Identification of Novel General Anesthetics; conditions: apoferritin/1-aminoanthracene competitive binding, fluorescence; series mostly up to 77.5 µM; further: nearly all actives have a fitted effect of over 20% in size
Method in brief: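 Horse-spleen apoferritin (10 uM) was mixed with 50% saturated 1-aminoanthracene in PBS, exposed to compounds for 10 min at room temperature, and read for fluorescence (ex 380 nm, em 535 nm). Competitive displacement was fitted with a four-parameter Hill equation.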
Potency means the concentration at half of the fitted maximal effect; tags describe the fitted curve by direction and shape.

Sequence of UniProt P02791 (P02791 whole entry, looked up): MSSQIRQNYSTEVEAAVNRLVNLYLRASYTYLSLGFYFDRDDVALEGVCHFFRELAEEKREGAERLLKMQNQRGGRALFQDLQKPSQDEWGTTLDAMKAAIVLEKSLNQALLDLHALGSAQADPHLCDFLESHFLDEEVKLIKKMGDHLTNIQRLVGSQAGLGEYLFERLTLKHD

| SMILES | Potency |
| --- | --- |
| CC(C)(C)N(Cc1ccccc1)C(=O)CSc1nc2ccccc2c(=O)[nH]1 | inconclusive: 11.2 µM [inhibitor, partial curve] |
| CCN1C(=O)N(c2ccc(Cl)cc2)C(C)=CC1(C)C | inconclusive: 20 µM [inhibitor, partial curve] |
| COc1ccc(N(Cc2cccs2)C(=O)COc2cc(C)c(Cl)c(C)c2)cc1 | inactive |
| Cc1cccc(NC(=O)c2ccc(N(C)C3CCCCC3)c([N+](=O)[O-])c2)n1 | inconclusive: 25.1 µM [inhibitor, partial curve] |
| O=C(/C=C/c1ccc2c(c1)OCO2)NCCSCc1ccc(Cl)cc1 | inconclusive: 11.2 µM [inhibitor, partial curve] |
| CCN(CC)S(=O)(=O)c1ccc2oc(C(=O)Nc3ccc(OC)cc3OC)c(C)c2c1 | inconclusive: 15.8 µM [inhibitor, partial curve] |
| CC(C)CCNC(=O)C1CCN(Cc2cccc(OCc3ccccc3)c2)CC1 | inconclusive: 35.5 µM [inhibitor, partial curve] |
| COC(=O)c1cccc(NC(=O)CCc2ccccc2)c1 | inactive |
| N/C(=N\OC(=O)CCC1CCCC1)c1ccc([N+](=O)[O-])cc1 | inconclusive: 31.6 µM [inhibitor, partial curve] |
| CC1CCCN(C(=O)c2ccc3c(=O)n(Cc4ccc5c(c4)OCO5)c(=S)[nH]c3c2)C1 (centres undefined) | inconclusive: 3.98 µM [inhibitor, full curve] |
| CCC(CC)COC(=O)C(C#N)c1nc2ccccc2nc1N1CCOCC1 (centres undefined) | inconclusive: 25.1 µM [inhibitor, partial curve] |
| CC(C)c1ccc(NC(=O)C2(C)Cc3ccccc3C(=O)O2)cc1 (centres undefined) | inconclusive: 14.1 µM [inhibitor, partial curve] |
| CS(=O)(=O)N1CCC(C(=O)Nc2cc(Cl)ccc2Cl)CC1 | inconclusive: 15.8 µM [inhibitor, partial curve] |
| C#CCOC(=O)NC(/C=C/CCCC)c1ccccc1 (centres undefined) | inconclusive: 31.6 µM [inhibitor, single point] |
| CN(CC(=O)Nc1ccc(F)c(Cl)c1)S(=O)(=O)c1cccc2nsnc12 | inactive |
| Cc1ccc(N2C(=O)C3C4C=CC(CC4)C3C2=O)cc1Cl (centres undefined) | inconclusive: 0.794 µM [inhibitor, full curve] |
| O=C(CCN1CCN(Cc2ccccc2)CC1)NNC(=O)Nc1cccc(Cl)c1 | inconclusive: 28.2 µM [inhibitor, partial curve] |
| COc1cccc(OC)c1C1=Nn2c(nnc2-c2ccccc2C)SC1 | inactive |
| COC(=O)c1ccccc1NC(=O)N1CCN(C(=O)c2ccco2)CC1 | inactive |
| Cc1cc(OCC(=O)Nc2cc(C(C)(C)C)on2)ccc1[N+](=O)[O-] | inconclusive: 11.2 µM [inhibitor, partial curve] |
| CC(C)C(NS(=O)(=O)c1cccc2cccnc12)C(=O)Nc1ccc(OC(F)(F)F)cc1 (centres undefined) | inconclusive: 28.2 µM [inhibitor, partial curve] |
| Clc1ccccc1CSc1ncn(-c2ccccc2)n1 | inactive |
| O=C1CC(NNc2ccccc2)C(=O)N1c1cccc(Cl)c1 (centres undefined) | inconclusive: 35.5 µM [inhibitor, single point] |

| SMILES | Potency |
| --- | --- |
| Cc1cc(C)c(NC(=O)CCC(=O)N2Cc3ccccc3Oc3ncccc32)c(C)c1 | inconclusive: 50.1 µM [inhibitor, single point] |
| O=c1[nH]c(/C=C/c2cccc([N+](=O)[O-])c2)c([N+](=O)[O-])c(=O)[nH]1 | inactive |
| O=C(Nc1cccnc1Cl)c1cc(-c2ccco2)on1 | inactive |
| Cc1ccc(-n2nc3c(=O)n(C(C)C(=O)NCc4ccccc4Cl)nc(C)c3c2C)cc1 (centres undefined) | inconclusive: 14.1 µM [inhibitor, partial curve] |
| O=C1c2ccccc2-c2n[nH]c(=O)c3ccc(N4CCCCC4)c1c23 | inconclusive: 31.6 µM [inhibitor, partial curve] |
| CC1c2ccsc2CCN1S(=O)(=O)c1ccccc1 (centres undefined) | inconclusive: 35.5 µM [inhibitor, single point] |
| O=Cc1ccc(OCc2ccc3c(c2)OCO3)cc1 | inconclusive: 50.1 µM [inhibitor, single point] |
| Cc1ccc(S(=O)(=O)Nc2ccc(O)c(S(=O)(=O)c3ccc(C)cc3)c2)cc1 | inactive |
| Cc1cccc(OCC(=O)Nc2ccc3nc(C)sc3c2)c1 | inactive |
| CCCCOc1ccc(S(=O)(=O)N2CCN(c3ccccc3OCC)CC2)cc1 | inconclusive: 0.891 µM [inhibitor, full curve, poor fit] |
| CC1(c2ccccc2)NC(=O)N(CCOc2ccccc2)C1=O (centres undefined) | inactive |
| CCC1CCCCN1CCCNC(=O)CN1C(=O)CSc2ccc(S(=O)(=O)N3CCC(C)CC3)cc21 (centres undefined) | inconclusive: 11.2 µM [inhibitor, full curve] and inconclusive: 39.8 µM [inhibitor, partial curve] |
| CCCc1nc2sc3c(SCC(=O)NCc4ccco4)ncnc3c2c2c1CCC2 | inconclusive: 15.8 µM [inhibitor, partial curve] |
| NC(N)=N/N=C/c1ccc(OS(=O)(=O)c2ccccc2)cc1 | inconclusive: 20 µM [inhibitor, partial curve] |
| Cn1c(SCC(=O)Nc2sccc2C#N)nnc1-c1ccccc1 | inconclusive: 22.4 µM [inhibitor, partial curve] |
| COc1cccc(CNC(=O)c2cc(-c3cccc(OC)c3)n[nH]2)c1 | inconclusive: 39.8 µM [inhibitor, partial curve] |
| Cc1ccc(-c2csc(N)n2)s1 | inconclusive: 39.8 µM [inhibitor, partial curve] |
| S=C(NCc1ccc(Cl)cc1)NCc1ccco1 | inconclusive: 39.8 µM [inhibitor, single point] |
| Cc1ccccc1Nc1nc(Cl)c(C=O)s1 | inconclusive: 25.1 µM [inhibitor, partial curve] |
| Cc1ccc(S(=O)(=O)n2nc(-c3ccco3)nc2SCc2ccccc2)cc1 | inconclusive: 25.1 µM [inhibitor, single point] |
| CC(=O)C1=C(c2ccc(Cl)c(Cl)c2)N(C(C)=O)n2c(C)nnc2S1 | inactive |
| CCN1C=C(Cc2ccc(OC)cc2)C2=C(C1)C(c1ccc(OC)cc1)C(C#N)=C(N)O2 (centres undefined) | inconclusive: 8.91 µM [inhibitor, partial curve] |
| CCOC(=O)CNC(=O)C12CC3CC(CC(C3)C1)C2 | inconclusive: 14.1 µM [inhibitor, partial curve] |

| SMILES | Potency |
| --- | --- |
| CCOC(=O)c1c(C)[nH]c(C)c1S(=O)(=O)N1CCCC(C(=O)Nc2ccc(OC)c(Cl)c2)C1 (centres undefined) | inactive |
| O=[N+]([O-])c1ccc2[nH]c(O)c(N=Nc3ccc(F)cc3)c2c1 | inactive |
| C(C#CCCCCCCCCC[n+]1ccccc1)#CCCCCCCCCC[n+]1ccccc1 | inactive |
| CC(=O)c1ccc(N2CCC(c3cc(-c4ccc(Cl)cc4)n[nH]3)CC2)c([N+](=O)[O-])c1 | inconclusive: 35.5 µM [inhibitor, partial curve] |
| Cc1ccc(C(=O)NCC(=O)N/N=C/c2sccc2C)cc1[N+](=O)[O-] | inconclusive: 14.1 µM [inhibitor, partial curve] |
| COc1cccc(CNC(=O)CSc2c3c(nc4ccc(Cl)cc24)CCCC3)c1OC | inconclusive: 28.2 µM [inhibitor, partial curve] |
| O/N=C/c1ccccc1OCc1ccccc1F | inconclusive: 28.2 µM [inhibitor, partial curve, poor fit] |
| [N-]=C=C1C(=O)NC(=O)C([n+]2ccc(-c3ccncc3)cc2)C1c1ccccc1C(F)(F)F (centres undefined) | inactive |
| Cc1ccc(S(=O)(=O)Nc2ccc(Br)cc2C(NCC(=O)O)c2ccccc2)cc1 (centres undefined) | inconclusive: 20 µM [inhibitor, partial curve] |
| COC(=O)c1ccccc1NC(=O)CSc1nnc(-c2ccc(C)cc2)o1 | inactive |
| CC12CC(c3ccccc3O1)N(C(=O)c1ccco1)C(=S)N2c1ccccc1 (centres undefined) | inactive |
| FC(F)(F)c1cc(-c2cccs2)nc(-n2cc(Cl)cn2)n1 | inconclusive: 15.8 µM [inhibitor, partial curve] |
| Cc1ccc(-n2nc3c(N4CCCC(C(=O)NCCc5ccccc5)C4)nnc(C)c3c2C)cc1 (centres undefined) | inconclusive: 50.1 µM [inhibitor, single point] |
| O=C(/C=C/c1ccco1)NCC(=O)N/N=C/c1ccc(Cl)cc1 | inconclusive: 50.1 µM [inhibitor, single point] |
| O=C(/C=C/c1ccco1)NCC1OCCc2ccccc21 (centres undefined) | inactive |
| Nc1nonc1-c1nc2ccccc2n1Cc1ccc(F)cc1 | inconclusive: 7.94 µM [inhibitor, full curve, poor fit] |
| Cc1c(C(=O)O)oc2c3c(ccc12)OCCO3 | inactive |
| Cc1ccnc(NC(=O)c2ccc(S(=O)(=O)c3ccccc3)cc2)c1 | inconclusive: 31.6 µM [inhibitor, partial curve] |
| CC(C)CCC(CCN1CCOCC1)c1ccc2c(c1)OCO2 (centres undefined) | inactive |
| CC(NC(=O)c1ccc(Br)o1)c1ccccc1 (centres undefined) | inconclusive: 28.2 µM [inhibitor, single point] |
| COc1ccc(N/C(N)=N/c2nc(CSc3ccc(Cl)cc3)cc(=O)[nH]2)cc1 | inconclusive: 50.1 µM [inhibitor, single point] |
| COc1cc(C(=O)O/N=C(\N)c2ccncc2)cc(OC)c1OC | inactive |
| S=C(c1ccc(-c2ccccc2Cl)o1)N1CCCCC1 | inconclusive: 50.1 µM [inhibitor, single point] |
